Experimental data from PMC12818216.
No constants are given. Whether binding was seen depends on the method and setting. Binding seen in cells or lysates may run through a third protein. Some results given as binding are weak or reduced against the parent protein; the word gives no strength. For some assays here: Sequences can lack the tags named with a protein. Values belong to the molecule of their own block, whether it stands above or below them.

By UniProt entry, the sequences of proteins in these tests, tags left out.
UniProt P40763: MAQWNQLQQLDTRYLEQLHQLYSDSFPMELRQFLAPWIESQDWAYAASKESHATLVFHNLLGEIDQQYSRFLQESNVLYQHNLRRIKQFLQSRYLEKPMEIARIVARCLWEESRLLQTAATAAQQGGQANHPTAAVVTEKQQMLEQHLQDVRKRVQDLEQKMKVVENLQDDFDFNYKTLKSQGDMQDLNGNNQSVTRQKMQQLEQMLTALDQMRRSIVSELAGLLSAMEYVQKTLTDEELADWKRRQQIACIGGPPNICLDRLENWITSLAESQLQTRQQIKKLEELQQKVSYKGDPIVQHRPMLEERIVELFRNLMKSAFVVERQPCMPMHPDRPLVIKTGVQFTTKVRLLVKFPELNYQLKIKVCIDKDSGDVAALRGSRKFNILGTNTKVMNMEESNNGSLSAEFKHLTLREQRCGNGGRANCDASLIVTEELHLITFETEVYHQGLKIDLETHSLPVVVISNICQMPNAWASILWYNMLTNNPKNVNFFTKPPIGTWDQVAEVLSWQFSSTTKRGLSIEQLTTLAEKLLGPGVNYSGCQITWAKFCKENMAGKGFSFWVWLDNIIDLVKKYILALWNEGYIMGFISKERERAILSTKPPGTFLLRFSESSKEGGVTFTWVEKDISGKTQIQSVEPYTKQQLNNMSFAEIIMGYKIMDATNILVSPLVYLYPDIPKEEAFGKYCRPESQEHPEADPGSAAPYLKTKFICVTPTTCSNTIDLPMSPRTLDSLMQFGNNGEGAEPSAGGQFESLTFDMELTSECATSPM
UniProt P23458: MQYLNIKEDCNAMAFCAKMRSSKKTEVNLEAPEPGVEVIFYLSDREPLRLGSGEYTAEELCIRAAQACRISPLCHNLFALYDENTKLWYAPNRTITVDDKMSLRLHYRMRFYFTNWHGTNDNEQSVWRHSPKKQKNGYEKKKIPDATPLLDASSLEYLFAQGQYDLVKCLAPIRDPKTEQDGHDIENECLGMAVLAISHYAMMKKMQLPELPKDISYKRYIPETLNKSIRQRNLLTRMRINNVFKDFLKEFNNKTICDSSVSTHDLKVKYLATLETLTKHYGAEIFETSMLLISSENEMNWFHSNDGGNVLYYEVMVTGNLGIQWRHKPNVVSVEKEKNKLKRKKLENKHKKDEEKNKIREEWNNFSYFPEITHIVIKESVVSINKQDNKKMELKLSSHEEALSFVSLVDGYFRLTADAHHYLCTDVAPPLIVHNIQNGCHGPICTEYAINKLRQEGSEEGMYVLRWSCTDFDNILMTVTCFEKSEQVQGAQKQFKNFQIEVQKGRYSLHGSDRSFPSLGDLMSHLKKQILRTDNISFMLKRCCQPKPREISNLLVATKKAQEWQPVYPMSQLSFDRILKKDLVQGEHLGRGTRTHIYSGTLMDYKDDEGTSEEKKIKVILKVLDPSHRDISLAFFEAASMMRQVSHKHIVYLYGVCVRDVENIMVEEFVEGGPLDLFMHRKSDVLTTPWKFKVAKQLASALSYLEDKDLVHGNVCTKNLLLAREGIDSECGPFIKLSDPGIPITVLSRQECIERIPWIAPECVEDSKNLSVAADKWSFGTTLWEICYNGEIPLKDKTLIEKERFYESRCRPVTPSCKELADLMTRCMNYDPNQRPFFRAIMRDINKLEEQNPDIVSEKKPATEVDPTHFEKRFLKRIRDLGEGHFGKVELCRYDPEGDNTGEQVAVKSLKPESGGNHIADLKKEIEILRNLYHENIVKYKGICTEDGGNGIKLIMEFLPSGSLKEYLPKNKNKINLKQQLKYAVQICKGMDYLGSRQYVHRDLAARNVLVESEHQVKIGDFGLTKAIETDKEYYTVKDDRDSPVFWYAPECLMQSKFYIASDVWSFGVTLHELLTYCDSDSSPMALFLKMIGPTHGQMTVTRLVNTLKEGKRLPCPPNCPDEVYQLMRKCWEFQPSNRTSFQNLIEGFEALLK
UniProt Q9P2J5: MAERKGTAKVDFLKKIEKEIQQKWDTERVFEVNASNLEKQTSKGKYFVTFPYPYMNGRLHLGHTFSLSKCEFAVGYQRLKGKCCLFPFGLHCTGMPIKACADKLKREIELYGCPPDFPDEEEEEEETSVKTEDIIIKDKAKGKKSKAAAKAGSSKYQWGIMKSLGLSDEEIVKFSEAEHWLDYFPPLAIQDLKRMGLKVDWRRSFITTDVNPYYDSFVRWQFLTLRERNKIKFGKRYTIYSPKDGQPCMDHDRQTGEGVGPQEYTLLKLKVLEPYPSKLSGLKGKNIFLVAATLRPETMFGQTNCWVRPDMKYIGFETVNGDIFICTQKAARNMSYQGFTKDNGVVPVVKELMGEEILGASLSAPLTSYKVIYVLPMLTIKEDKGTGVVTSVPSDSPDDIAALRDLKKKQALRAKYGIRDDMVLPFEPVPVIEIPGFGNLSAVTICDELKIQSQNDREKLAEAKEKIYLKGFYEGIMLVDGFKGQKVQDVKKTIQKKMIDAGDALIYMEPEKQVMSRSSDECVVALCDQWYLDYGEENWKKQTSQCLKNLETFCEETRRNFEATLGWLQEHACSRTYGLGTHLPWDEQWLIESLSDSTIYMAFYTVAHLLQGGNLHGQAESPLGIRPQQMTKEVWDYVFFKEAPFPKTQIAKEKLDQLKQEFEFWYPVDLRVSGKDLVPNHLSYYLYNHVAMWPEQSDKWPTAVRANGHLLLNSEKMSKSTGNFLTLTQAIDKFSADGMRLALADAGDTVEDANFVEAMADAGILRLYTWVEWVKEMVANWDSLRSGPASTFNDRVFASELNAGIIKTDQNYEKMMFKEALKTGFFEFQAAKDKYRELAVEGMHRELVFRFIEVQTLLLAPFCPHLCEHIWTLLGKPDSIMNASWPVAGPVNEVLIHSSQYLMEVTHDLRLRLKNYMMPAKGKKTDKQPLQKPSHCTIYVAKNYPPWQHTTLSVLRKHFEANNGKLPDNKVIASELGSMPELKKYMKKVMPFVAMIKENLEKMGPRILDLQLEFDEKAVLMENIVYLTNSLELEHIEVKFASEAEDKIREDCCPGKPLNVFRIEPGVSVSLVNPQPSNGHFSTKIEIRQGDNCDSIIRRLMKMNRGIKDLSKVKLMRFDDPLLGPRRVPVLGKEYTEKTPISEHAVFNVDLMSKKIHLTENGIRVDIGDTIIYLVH
UniProt Q15046: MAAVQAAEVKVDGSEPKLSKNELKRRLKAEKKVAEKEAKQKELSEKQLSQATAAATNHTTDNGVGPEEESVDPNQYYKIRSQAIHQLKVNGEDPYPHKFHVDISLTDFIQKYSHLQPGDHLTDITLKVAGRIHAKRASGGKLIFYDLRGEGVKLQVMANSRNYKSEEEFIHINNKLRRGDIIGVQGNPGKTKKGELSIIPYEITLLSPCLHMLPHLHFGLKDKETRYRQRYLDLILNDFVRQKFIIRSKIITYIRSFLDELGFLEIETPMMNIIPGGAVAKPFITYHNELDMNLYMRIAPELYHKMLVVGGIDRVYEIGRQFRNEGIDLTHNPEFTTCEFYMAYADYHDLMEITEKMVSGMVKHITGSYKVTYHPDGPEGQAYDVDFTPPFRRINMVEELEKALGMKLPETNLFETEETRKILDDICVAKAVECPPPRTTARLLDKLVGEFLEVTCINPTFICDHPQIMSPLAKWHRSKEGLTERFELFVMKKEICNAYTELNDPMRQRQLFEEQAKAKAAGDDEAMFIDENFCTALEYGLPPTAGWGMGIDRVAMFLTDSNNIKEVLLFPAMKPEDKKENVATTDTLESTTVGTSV
UniProt P07814: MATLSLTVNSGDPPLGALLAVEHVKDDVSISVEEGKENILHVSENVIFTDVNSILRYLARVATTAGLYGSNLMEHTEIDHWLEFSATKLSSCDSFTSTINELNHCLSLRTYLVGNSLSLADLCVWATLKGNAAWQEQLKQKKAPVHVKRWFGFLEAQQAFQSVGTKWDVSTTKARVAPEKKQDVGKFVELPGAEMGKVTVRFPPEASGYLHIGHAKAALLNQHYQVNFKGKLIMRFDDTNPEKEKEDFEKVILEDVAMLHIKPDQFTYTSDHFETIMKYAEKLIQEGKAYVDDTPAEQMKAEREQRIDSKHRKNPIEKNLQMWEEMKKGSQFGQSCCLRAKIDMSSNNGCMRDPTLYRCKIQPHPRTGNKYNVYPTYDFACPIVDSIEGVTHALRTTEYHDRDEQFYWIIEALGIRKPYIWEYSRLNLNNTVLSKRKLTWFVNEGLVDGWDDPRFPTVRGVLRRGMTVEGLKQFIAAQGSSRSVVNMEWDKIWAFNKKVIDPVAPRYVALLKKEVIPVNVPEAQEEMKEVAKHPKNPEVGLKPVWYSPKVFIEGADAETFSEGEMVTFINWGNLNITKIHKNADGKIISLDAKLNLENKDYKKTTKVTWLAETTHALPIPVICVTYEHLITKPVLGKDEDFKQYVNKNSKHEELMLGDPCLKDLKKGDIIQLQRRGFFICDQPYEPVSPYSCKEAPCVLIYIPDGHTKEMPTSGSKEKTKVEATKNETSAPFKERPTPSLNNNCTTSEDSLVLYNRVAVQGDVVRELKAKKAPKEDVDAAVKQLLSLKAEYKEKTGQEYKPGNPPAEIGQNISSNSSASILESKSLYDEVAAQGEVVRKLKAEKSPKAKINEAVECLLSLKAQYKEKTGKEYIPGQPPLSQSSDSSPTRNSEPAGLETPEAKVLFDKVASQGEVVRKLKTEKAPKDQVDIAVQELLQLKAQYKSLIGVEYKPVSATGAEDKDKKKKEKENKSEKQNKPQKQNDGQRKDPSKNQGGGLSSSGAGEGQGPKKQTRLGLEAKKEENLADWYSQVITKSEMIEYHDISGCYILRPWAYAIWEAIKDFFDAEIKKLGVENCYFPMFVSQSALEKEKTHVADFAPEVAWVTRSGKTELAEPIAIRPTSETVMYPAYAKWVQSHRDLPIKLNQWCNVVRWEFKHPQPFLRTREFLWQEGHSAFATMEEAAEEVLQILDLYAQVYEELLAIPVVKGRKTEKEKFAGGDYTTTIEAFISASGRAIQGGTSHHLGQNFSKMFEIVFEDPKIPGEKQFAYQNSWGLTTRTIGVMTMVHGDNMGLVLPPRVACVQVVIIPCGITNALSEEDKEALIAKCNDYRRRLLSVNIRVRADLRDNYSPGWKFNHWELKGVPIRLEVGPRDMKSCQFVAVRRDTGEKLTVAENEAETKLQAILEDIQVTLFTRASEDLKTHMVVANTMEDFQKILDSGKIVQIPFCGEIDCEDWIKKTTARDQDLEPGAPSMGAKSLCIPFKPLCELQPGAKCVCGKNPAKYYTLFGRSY

What was measured:
FLAG-TARS1 (mouse) = biological target: T1, FLAG-TARS1 (mouse) (UniProt Q9D0R2); experiment: co-IP; HEK293 cells transfected for 2 days with recombinant constructs, anti-FLAG IP and Western blotting
T1 sequence: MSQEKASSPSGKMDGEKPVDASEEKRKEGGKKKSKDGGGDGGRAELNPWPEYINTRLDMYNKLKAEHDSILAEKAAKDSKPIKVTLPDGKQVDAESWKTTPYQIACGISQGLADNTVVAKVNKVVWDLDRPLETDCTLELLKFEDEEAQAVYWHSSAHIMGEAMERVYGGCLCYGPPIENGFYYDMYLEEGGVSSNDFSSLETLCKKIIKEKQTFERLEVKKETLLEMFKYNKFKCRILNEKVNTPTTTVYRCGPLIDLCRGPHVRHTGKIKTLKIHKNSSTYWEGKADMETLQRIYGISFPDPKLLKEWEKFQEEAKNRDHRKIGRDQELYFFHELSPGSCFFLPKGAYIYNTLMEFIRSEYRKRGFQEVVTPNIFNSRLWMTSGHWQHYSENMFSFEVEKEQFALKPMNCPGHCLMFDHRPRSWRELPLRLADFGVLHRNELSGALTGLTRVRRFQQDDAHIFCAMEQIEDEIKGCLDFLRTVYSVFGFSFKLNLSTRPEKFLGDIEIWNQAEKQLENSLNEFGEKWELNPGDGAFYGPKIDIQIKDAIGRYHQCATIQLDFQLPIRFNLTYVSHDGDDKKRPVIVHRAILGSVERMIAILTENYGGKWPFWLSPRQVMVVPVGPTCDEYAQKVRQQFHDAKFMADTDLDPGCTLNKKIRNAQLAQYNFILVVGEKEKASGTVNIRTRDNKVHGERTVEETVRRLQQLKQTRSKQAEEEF

FLAG-STAT3 = FLAG-STAT3 (UniProt P40763); experiment: as above
[1] = biological target: signal transducer and activator of transcription 3 (STAT3), endogenous (human (endogenous in H1703)) (UniProt P40763); experiment: co-IP; H1703 cell lysates, endogenous proteins, IP with anti-STAT3 followed by Western blotting
FLAG-JAK1 = FLAG-JAK1 (UniProt P23458); experiment: co-IP; HEK293 cells transfected with FLAG-JAK1 (or empty vector) for 2 days, anti-FLAG IP; endogenous TARS1 detected by Western blotting

Molecule: GFP-STAT3 (from UniProt P40763 1-770)
binding (FLAG-TARS1 (mouse)): binds

Molecule: leucyl-tRNA synthetase 1 (from UniProt Q9P2J5 1-1176) (enzyme)
binding (FLAG-STAT3): no binding

Molecule: lysyl-tRNA synthetase 1 (from UniProt Q15046 1-597) (enzyme)
binding (FLAG-STAT3): no binding

B1: GFP-TARS1 (enzyme, UniProt Q9D0R2 1-722)
chain: T1 sequence
binding (FLAG-STAT3): binds

Other lines, results leading:

binding (FLAG-STAT3): no binding
Molecule: glutamyl-prolyl-tRNA synthetase 1 (from UniProt P07814 1-1512) (enzyme)

binding (FLAG-STAT3): no binding
B2: aspartyl-tRNA synthetase 1 (enzyme, UniProt P14868 1-501)
chain: MPSASASRKSQEKPREIMDAAEDYAKERYGISSMIQSQEKPDRVLVRVRDLTIQKADEVVWVRARVHTSRAKGKQCFLVLRQQQFNVQALVAVGDHASKQMVKFAANINKESIVDVEGVVRKVNQKIGSCTQQDVELHVQKIYVISLAEPRLPLQLDDAVRPEAEGEEEGRATVNQDTRLDNRVIDLRTSTSQAVFRLQSGICHLFRETLINKGFVEIQTPKIISAASEGGANVFTVSYFKNNAYLAQSPQLYKQMCICADFEKVFSIGPVFRAEDSNTHRHLTEFVGLDIEMAFNYHYHEVMEEIADTMVQIFKGLQERFQTEIQTVNKQFPCEPFKFLEPTLRLEYCEALAMLREAGVEMGDEDDLSTPNEKLLGHLVKEKYDTDFYILDKYPLAVRPFYTMPDPRNPKQSNSYDMFMRGEEILSGAQRIHDPQLLTERALHHGIDLEKIKAYIDSFRFGAPPHAGGGIGLERVTMLFLGLHNVRQTSMFPRDPKRLTP

binding [1]: binds | binding (FLAG-JAK1): binds
B3: threonyl-tRNA synthetase 1 (TARS1), endogenous (enzyme, UniProt P26639 1-723)
chain: MFEEKASSPSGKMGGEEKPIGAGEEKQKEGGKKKNKEGSGDGGRAELNPWPEYIYTRLEMYNILKAEHDSILAEKAEKDSKPIKVTLPDGKQVDAESWKTTPYQIACGISQGLADNTVIAKVNNVVWDLDRPLEEDCTLELLKFEDEEAQAVYWHSSAHIMGEAMERVYGGCLCYGPPIENGFYYDMYLEEGGVSSNDFSSLEALCKKIIKEKQAFERLEVKKETLLAMFKYNKFKCRILNEKVNTPTTTVYRCGPLIDLCRGPHVRHTGKIKALKIHKNSSTYWEGKADMETLQRIYGISFPDPKMLKEWEKFQEEAKNRDHRKIGRDQELYFFHELSPGSCFFLPKGAYIYNALIEFIRSEYRKRGFQEVVTPNIFNSRLWMTSGHWQHYSENMFSFEVEKELFALKPMNCPGHCLMFDHRPRSWRELPLRLADFGVLHRNELSGALTGLTRVRRFQQDDAHIFCAMEQIEDEIKGCLDFLRTVYSVFGFSFKLNLSTRPEKFLGDIEVWDQAEKQLENSLNEFGEKWELNSGDGAFYGPKIDIQIKDAIGRYHQCATIQLDFQLPIRFNLTYVSHDGDDKKRPVIVHRAILGSVERMIAILTENYGGKWPFWLSPRQVMVVPVGPTCDEYAQKVRQQFHDAKFMADIDLDPGCTLNKKIRNAQLAQYNFILVVGEKEKISGTVNIRTRDNKVHGERTISETIERLQQLKEFRSKQAEEEF
